Here are results for six molecules from article PMC5472178.

Results are given in words; binding and its absence hold for the method and conditions named. In cells and extracts the contact can be indirect. Some binding calls cover weakened binding; strength is not graded here. For some of these results: Tags and fused reporters may be left off the sequences shown.

Test [1] addresses T1, Flag-tagged ZNRF1 (zinc and ring finger 1), full length (mouse) (UniProt Q91V17).
T1 sequence: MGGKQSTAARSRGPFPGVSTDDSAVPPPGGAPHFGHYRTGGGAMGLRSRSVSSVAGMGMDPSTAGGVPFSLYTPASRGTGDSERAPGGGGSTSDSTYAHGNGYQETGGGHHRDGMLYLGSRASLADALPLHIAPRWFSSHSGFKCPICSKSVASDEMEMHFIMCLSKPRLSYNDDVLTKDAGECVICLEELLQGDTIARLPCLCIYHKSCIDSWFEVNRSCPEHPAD
Briefly: co-IP; HEK293T cells co-transfected with V5-tagged CAV1 and Flag-tagged ZNRF1 (full length or truncated); lysis in 150 mM NaCl, 20 mM Tris-HCl pH 7.4, 0.5% Triton X-100; immunoprecipitation at 4 °C and immunoblotting.

Test [2] has as its target T2, ZNRF1(ΔN142), Flag-tagged (mouse) (UniProt Q91V17).
T2 sequence: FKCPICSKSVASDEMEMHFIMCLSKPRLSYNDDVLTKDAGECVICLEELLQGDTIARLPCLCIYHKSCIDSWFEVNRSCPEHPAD
The test is described as above.

For test [3], the target named is T3, endogenous ZNRF1 of RAW264.7 macrophages (mouse (endogenous in RAW264.7)) (UniProt Q91V17).
T3 sequence: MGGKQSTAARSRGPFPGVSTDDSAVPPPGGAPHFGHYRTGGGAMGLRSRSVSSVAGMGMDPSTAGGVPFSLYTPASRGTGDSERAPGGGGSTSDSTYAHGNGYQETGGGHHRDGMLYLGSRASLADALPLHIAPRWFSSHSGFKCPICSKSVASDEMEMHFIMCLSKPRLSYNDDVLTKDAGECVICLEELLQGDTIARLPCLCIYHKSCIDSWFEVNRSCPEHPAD
The test is described as follows: co-IP; endogenous proteins; ZNRF1 immunoprecipitated from lysates of RAW264.7 cells treated with LPS (100 ng/ml) for the indicated times, immunoblot for CAV1. Background: Immunoblotting shows a protein as a band on a membrane.

In test [4] the target is T4, V5-tagged CAV1 (caveolin-1), full length (mouse) (UniProt P49817).
T4 sequence: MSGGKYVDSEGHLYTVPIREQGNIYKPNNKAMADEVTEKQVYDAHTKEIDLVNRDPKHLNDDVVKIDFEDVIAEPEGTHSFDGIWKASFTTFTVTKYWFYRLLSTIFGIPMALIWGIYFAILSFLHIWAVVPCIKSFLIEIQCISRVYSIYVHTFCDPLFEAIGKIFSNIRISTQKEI
Briefly: co-IP; HEK293T cells co-transfected with V5-tagged CAV1 and Flag-tagged ZNRF1 (full length or truncated); lysis in 150 mM NaCl, 20 mM Tris-HCl pH 7.4, 0.5% Triton X-100; immunoprecipitation at 4 °C and immunoblotting.

B1: V5-tagged CAV1 (caveolin-1), full length (protein, UniProt P49817 1-178)
chain: MSGGKYVDSEGHLYTVPIREQGNIYKPNNKAMADEVTEKQVYDAHTKEIDLVNRDPKHLNDDVVKIDFEDVIAEPEGTHSFDGIWKASFTTFTVTKYWFYRLLSTIFGIPMALIWGIYFAILSFLHIWAVVPCIKSFLIEIQCISRVYSIYVHTFCDPLFEAIGKIFSNIRISTQKEI
Consider B1, for which the figures for the binding result in test [1] and in test [2] were “binds” and “no binding”, respectively.

B2: endogenous CAV1 of RAW264.7 macrophages (protein, UniProt P49817 1-178)
chain: MSGGKYVDSEGHLYTVPIREQGNIYKPNNKAMADEVTEKQVYDAHTKEIDLVNRDPKHLNDDVVKIDFEDVIAEPEGTHSFDGIWKASFTTFTVTKYWFYRLLSTIFGIPMALIWGIYFAILSFLHIWAVVPCIKSFLIEIQCISRVYSIYVHTFCDPLFEAIGKIFSNIRISTQKEI
Take B2: the binding result in test [3] is recorded as “binds”.

B3: CAV1(Δ151), V5-tagged (domain or fragment, UniProt P49817 1-150)
chain: MSGGKYVDSEGHLYTVPIREQGNIYKPNNKAMADEVTEKQVYDAHTKEIDLVNRDPKHLNDDVVKIDFEDVIAEPEGTHSFDGIWKASFTTFTVTKYWFYRLLSTIFGIPMALIWGIYFAILSFLHIWAVVPCIKSFLIEIQCISRVYSI
Take B3: the binding result in test [1] is “binds”.

B4: CAV1(Δ136–178), V5-tagged (domain or fragment, UniProt P49817 1-135)
chain: MSGGKYVDSEGHLYTVPIREQGNIYKPNNKAMADEVTEKQVYDAHTKEIDLVNRDPKHLNDDVVKIDFEDVIAEPEGTHSFDGIWKASFTTFTVTKYWFYRLLSTIFGIPMALIWGIYFAILSFLHIWAVVPCIK
On to B4, for which the binding entry in test [1] was “no binding”.

B5: CAV1(Δ136–151), V5-tagged (protein, UniProt P49817)
chain: MSGGKYVDSEGHLYTVPIREQGNIYKPNNKAMADEVTEKQVYDAHTKEIDLVNRDPKHLNDDVVKIDFEDVIAEPEGTHSFDGIWKASFTTFTVTKYWFYRLLSTIFGIPMALIWGIYFAILSFLHIWAVVPCIKVHTFCDPLFEAIGKIFSNIRISTQKEI
For B5, the binding entry in test [1] is “no binding”.

B6: Flag-tagged ZNRF1 (zinc and ring finger 1), full length (enzyme, UniProt Q91V17 1-227)
chain: MGGKQSTAARSRGPFPGVSTDDSAVPPPGGAPHFGHYRTGGGAMGLRSRSVSSVAGMGMDPSTAGGVPFSLYTPASRGTGDSERAPGGGGSTSDSTYAHGNGYQETGGGHHRDGMLYLGSRASLADALPLHIAPRWFSSHSGFKCPICSKSVASDEMEMHFIMCLSKPRLSYNDDVLTKDAGECVICLEELLQGDTIARLPCLCIYHKSCIDSWFEVNRSCPEHPAD
Regarding B6, the binding entry in test [4] is recorded as “binds”.
